Experiment [1] has as its target HA-tagged Shisa9WT, full length (mouse) (UniProt Q9CZN4). Description: co-IP; HEK293T cells co-transfected with HA-Shisa9 (WT or ΔEVTV) and one V5-tagged interactor; lysis in 25 mM HEPES/NaOH pH 7.4, 150 mM NaCl with 1% DDM (1% Triton X-100 for PICK1); precipitation with anti-HA, blot with anti-V5.
The target in experiment [2] is HA-tagged Shisa9ΔEVTV (mouse) (UniProt Q9CZN4). The description is as above.

Chains of the proteins cited; added tags and fusions are not shown. Lines headed by an entry give the natural chain unless they say otherwise; changes in a name come on top. A line that says so, or that is headed by a name, gives the form on record, which may keep a tag or linker. Residues count along the entry.
UniProt Q9CZN4: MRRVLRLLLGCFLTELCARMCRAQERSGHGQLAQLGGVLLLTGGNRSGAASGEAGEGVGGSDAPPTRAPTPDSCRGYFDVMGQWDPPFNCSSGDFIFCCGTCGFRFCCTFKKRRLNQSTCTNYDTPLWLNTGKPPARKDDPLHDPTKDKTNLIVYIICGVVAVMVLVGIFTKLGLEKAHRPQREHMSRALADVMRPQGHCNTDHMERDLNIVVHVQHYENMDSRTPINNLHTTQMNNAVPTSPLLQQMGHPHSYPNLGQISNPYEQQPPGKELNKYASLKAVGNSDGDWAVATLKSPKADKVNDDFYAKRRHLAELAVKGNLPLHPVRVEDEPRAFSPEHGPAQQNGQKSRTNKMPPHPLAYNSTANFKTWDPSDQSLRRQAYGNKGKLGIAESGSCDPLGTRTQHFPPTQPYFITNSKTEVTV
HA-tagged Shisa9WT, full length: residues 24-424 of Q9CZN4
HA-tagged Shisa9ΔEVTV: residues 24-420 of Q9CZN4
UniProt Q925T6: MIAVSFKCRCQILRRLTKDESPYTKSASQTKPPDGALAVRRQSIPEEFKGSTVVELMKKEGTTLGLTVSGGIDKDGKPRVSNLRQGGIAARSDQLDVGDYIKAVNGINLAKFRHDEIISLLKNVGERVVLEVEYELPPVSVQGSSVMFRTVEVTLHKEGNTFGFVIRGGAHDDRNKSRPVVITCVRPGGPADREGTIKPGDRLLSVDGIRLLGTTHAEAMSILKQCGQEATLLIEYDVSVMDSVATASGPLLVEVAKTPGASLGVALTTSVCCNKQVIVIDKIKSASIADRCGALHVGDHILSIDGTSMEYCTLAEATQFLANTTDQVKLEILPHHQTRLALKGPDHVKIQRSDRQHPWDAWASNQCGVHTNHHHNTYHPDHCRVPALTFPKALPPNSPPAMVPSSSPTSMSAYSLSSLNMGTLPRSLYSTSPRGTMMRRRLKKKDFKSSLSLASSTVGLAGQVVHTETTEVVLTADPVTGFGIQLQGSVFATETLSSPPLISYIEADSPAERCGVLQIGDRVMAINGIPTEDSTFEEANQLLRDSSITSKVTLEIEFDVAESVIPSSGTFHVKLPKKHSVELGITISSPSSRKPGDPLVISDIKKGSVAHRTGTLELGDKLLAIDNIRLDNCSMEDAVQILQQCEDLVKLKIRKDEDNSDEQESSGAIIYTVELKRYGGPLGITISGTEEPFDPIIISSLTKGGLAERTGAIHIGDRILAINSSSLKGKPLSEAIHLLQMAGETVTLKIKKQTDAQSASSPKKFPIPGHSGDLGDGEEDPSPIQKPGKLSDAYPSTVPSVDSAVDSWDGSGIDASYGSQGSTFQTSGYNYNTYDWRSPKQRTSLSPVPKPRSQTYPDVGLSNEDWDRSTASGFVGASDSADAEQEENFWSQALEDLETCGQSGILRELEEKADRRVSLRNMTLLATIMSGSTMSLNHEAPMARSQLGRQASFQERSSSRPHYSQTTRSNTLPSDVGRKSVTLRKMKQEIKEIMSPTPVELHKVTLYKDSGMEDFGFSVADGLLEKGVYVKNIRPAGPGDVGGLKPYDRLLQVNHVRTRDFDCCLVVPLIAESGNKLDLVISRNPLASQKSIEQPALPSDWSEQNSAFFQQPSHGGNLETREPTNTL
UniProt Q62083: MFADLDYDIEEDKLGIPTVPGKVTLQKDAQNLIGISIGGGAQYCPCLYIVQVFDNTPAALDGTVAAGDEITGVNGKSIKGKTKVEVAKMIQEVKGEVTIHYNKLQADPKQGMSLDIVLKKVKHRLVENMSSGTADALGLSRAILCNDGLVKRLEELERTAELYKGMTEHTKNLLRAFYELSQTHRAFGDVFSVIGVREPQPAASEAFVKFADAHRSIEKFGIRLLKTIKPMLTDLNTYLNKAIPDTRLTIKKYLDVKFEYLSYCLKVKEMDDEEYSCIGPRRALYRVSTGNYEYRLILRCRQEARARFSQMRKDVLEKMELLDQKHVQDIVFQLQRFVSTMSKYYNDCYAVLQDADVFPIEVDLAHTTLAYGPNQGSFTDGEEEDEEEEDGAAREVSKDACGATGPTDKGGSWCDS

These are yes or no findings as the source states them, for the method shown. Binding seen in cells or lysates may run through a third protein. Some binding calls cover weakened binding; strength is not graded here. Sequences can lack the tags named with a protein.

With “V5-tagged GRIP1, full length (from UniProt Q925T6 1-1127)”, the figures for the binding result in experiment [1] and in experiment [2] were “binds” and “no binding”, respectively. In the same order, the values of “V5-tagged PICK1, full length (from UniProt Q62083 1-416)” are “binds” and “no binding”.

B1: V5-tagged Dynlt3, full length (protein, UniProt P56387 1-116)
chain: MEGYQRPCDEVGFNADEAHNIVKECVDGVLGGNDYNENNINQWTASIVEQSITHLVKLGKAYKYIVTCAVVQRSPYGFHTASSCFWDTTSDGTCTIRWENRTMNCIVNVFAVAIVL
B1: the binding entry in experiment [1] is “no binding”.

B2: V5-tagged MPP5, full length (protein, UniProt Q9JLB2 1-675)
chain: MTTSYMNGHVTEESDSGIKNLDLASPEEYPKHREMAVDCPGDLGTRMMPVRRSAQLERIRQQQEDMRRRREEEGKKQELDLNSSMRLKKLAQIPPKTGIDNPIFDTEEGIVLESPHYAVNILDVEDLFSSLKHIQHTLVDSQSQEDISLLLQLVQNRDFQNAFKIHNAVTVHMSKASPPFPLIANVQDLVQEVQTVLKPVHQKEGQELTALLNAPHIQALLLAHDKVAEQEMQLEPITDERVYESIGHYGGETVKIVRIEKARDIPLGATVRNEMDSVIISRIVKGGAAEKSGLLHEGDEVLEINGIEIRGKDVNEVFDLLSDMHGTLTFVLIPSQQIKPPPAKETVIHVKAHFDYDPSDDPYVPCRELGLSFQKGDILHVISQEDPNWWQAYREGDEDNQPLAGLVPGKSFQQQREAMKQTIEEDKEPEKSGKLWCAKKNKKKRKKVLYNANKNDDYDNEEILTYEEMSLYHQPANRKRPIILIGPQNCGQNELRQRLMNKEKDRFASAVPHTTRNRRDHEVAGRDYHFVSRQAFEADIAAGKFIEHGEFEKNLYGTSIDSVRQVINSGKICLLSLRTQSLKTLRNSDLKPYIIFIAPPSQERLRALLAKEGKNPKPEELREIIEKTREMEQNNGHYFDTAIVNSDLDKAYQELLRLINKLDTEPQWVPSTWLR
Regarding B2, the binding entry in experiment [1] was “no binding”.

B3: V5-tagged Lin7b, full length (protein, UniProt O88951 1-207)
chain: MAALVEPLGLERDVSRAVELLERLQRSGELPPQKLQALQRVLQSRFCSAIREVYEQLYDTLDITGSAEVRAHATAKATVAAFTASEGHAHPRVVELPKTDEGLGFNIMGGKEQNSPIYISRVIPGGVADRHGGLKRGDQLLSVNGVSVEGEHHEKAVELLKAAQGSVKLVVRYTPRVLEEMEARFEKMRSARRRQQHHSYTSLESRG
For B3, the figures for the binding result in experiment [1] and in experiment [2] were “binds” and “no binding”, respectively.

The values are drawn from paper PMC3911953.
